The record followed here is the supplement of paper PMC4604168 (melanoma cell lines).

Some test systems named below: MZ2-MEL; MeWo; RPMI7951; RVH-421; SkMel28; SkMel2; SkMel30; SkMel5; UACC257; UACC62.
Holding throughout (test): cell count relative to DMSO control; melanoma cells; higher = more viable cells
Common to all, as to settings: library dose: low library concentration; 72 h

This is one part of the list. Single values are uncertain, as repeats are few or missing.
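Also: cell number obtained by counting DAPI-stained nuclei in high-throughput microscope images with image analysis software, screen run in 1,536-well plates.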

For `CC(C)C[C@H](NC(=O)[C@H](Cc1ccccc1)NC(=O)c1cnccn1)B(O)O` [Bortezomib] + O=C1NC(=O)/C(=C/c2ccc(-c3ccc(F)cc3O)o2)S1 [AS252424] (first compound 0.001 µM, partner dose 1 µM), the cell count in the assay on MZ2-MEL was 67.5%; with MeWo it was 98.6%; with RPMI7951, 74.5%; in the assay on RVH-421 it was 45.8%; in the assay on SkMel28, 86.3%; in the assay with SkMel2, 96.9%. For the same molecule, the cell count with SkMel30 amounted to 85.5%; in the assay with SkMel5 it was 94%; in the assay with UACC257 it was 78.1%; in the assay with UACC62, 79.6%.
In the case of `Cc1cc(Nc2cc(N3CCN(C)CC3)nc(/C=C/c3ccccc3)n2)n[nH]1` + C=CCn1c(=O)c2cnc(Nc3ccc(N4CCN(C)CC4)cc3)nc2n1-c1cccc(C(C)(C)O)n1 [MK1775] (first compound 0.04 µM, partner dose 0.02 µM), the cell count amounted to 102% in the assay on MZ2-MEL; 94.7% with MeWo; 93.4% in the assay on RPMI7951; 103% in the assay with RVH-421; 74.9% with SkMel28; 86% in the assay on SkMel2. Moreover, the cell count in the assay with SkMel30 is 83.6%; in the assay with SkMel5 it was 97.9%; in the assay with UACC257 it was 75.4%; with UACC62 it was 67.8%.
In the case of `Cc1cn(-c2cc(NC(=O)c3ccc(C)c(Nc4nccc(-c5cccnc5)n4)c3)cc(C(F)(F)F)c2)cn1` [nilotinib] + CO[C@@H]1[C@H](N(C)C(=O)c2ccccc2)C[C@H]2O[C@]1(C)n1c3ccccc3c3c4c(c5c6ccccc6n2c5c31)C(=O)NC4 [Midostaurin] (first compound 0.2 µM, partner dose 0.08 µM), the cell count is 88.6% in the assay with MZ2-MEL; 83.9% in the assay with MeWo; 90.3% with RPMI7951; 80.4% in the assay with RVH-421; 101% with SkMel28; 54.4% in the assay with SkMel2. For the same molecule, the cell count is 73.8% in the assay with SkMel30, 88.9% with SkMel5, 91.8% with UACC257 and 61.6% in the assay on UACC62.
With `Cn1c(=O)n(-c2ccc(C(C)(C)C#N)cc2)c2c3cc(-c4cnc5ccccc5c4)ccc3ncc21` + C=CCn1c(=O)c2cnc(Nc3ccc(N4CCN(C)CC4)cc3)nc2n1-c1cccc(C(C)(C)O)n1 [MK1775] (first compound 0.004 µM, partner dose 0.02 µM), the cell count was 98.7% in the assay on MZ2-MEL; 81.2% in the assay with MeWo; 93.2% with RPMI7951; 97.4% with RVH-421; 72.5% in the assay with SkMel28; 87% with SkMel2. The cell count with SkMel30 was 73.9%; in the assay with SkMel5, 85.2%; with UACC257, 73.9%; with UACC62, 76.4%.
As to `Cc1cc(Nc2cc(N3CCN(C)CC3)nc(/C=C/c3ccccc3)n2)n[nH]1` + COC(=O)c1sccc1S(=O)(=O)Nc1ccc(Nc2ccccc2)cc1OC [GSK0660] (first compound 0.04 µM, partner dose 1 µM), the cell count with MZ2-MEL was found to be 104%; with MeWo, 103%; in the assay on RPMI7951 it was 95.8%; with RVH-421 it was 72.5%; with SkMel28, 90.1%; in the assay on SkMel2, 103%. Besides, the cell count with SkMel30 is 98.8%; with SkMel5, 113%; in the assay on UACC257, 88.2%; with UACC62, 92.9%.
Regarding `Cc1cc(Nc2cc(N3CCN(C)CC3)nc(/C=C/c3ccccc3)n2)n[nH]1` + O=c1cc(-c2cccc3c2Sc2ccccc2S3)oc(N2CCOCC2)c1 [KU55933] (first compound 0.04 µM, partner dose 1 µM), the cell count in the assay on MZ2-MEL came out at 112%; in the assay with MeWo it was 39.7%; in the assay with RPMI7951, 98.1%; with RVH-421, 90.7%; in the assay with SkMel28, 96.5%; in the assay on SkMel2 it was 102%. In addition, the cell count was determined as 82.8% in the assay with SkMel30, 104% with SkMel5, 117% with UACC257 and 102% in the assay with UACC62.
Consider `Cc1cc(Nc2cc(N3CCN(C)CC3)nc(/C=C/c3ccccc3)n2)n[nH]1` + Oc1nc(-c2ccc(C(F)(F)F)cc2)nc2c1CSCC2 [XAV939] (first compound 0.04 µM, partner dose 2 µM), for which the cell count in the assay on MZ2-MEL was found to be 101%; in the assay with MeWo, 94.9%; in the assay with RPMI7951, 101%; in the assay on RVH-421, 86.2%; in the assay with SkMel28, 83.6%; with SkMel2, 92.7%. Further, the cell count in the assay on SkMel30 turned out to be 98.8%; in the assay on SkMel5, 83.9%; in the assay on UACC257, 89.6%; with UACC62, 85.3%.
For `CC(C)C[C@H](NC(=O)[C@H](Cc1ccccc1)NC(=O)c1cnccn1)B(O)O` [Bortezomib] + COc1ccc(-c2ccc3c(N4CCOCC4)nc(N4C[C@@H](C)O[C@@H](C)C4)nc3n2)cc1CO [KU0063794] (first compound 0.001 µM, partner dose 0.02 µM), the cell count worked out at 62.1% in the assay with MZ2-MEL; 89.1% in the assay with MeWo; 58.9% with RPMI7951; 47.7% with RVH-421; 86.6% in the assay with SkMel28; 97.8% in the assay on SkMel2. Further, the cell count came to 80.3% in the assay with SkMel30, 87.9% in the assay on SkMel5, 65.8% in the assay with UACC257 and 69% in the assay on UACC62.
As for `Cc1cn(-c2cc(NC(=O)c3ccc(C)c(Nc4nccc(-c5cccnc5)n4)c3)cc(C(F)(F)F)c2)cn1` [nilotinib] + OCCn1cc(-c2cnc3nnn(Cc4ccc5ncccc5c4)c3n2)cn1 [PF04217903] (first compound 0.2 µM, partner dose 1 µM), the cell count in the assay on MZ2-MEL amounted to 112%; in the assay with MeWo, 94.3%; with RPMI7951, 91.2%; in the assay on RVH-421, 118%; with SkMel28, 109%; in the assay with SkMel2 it was 103%. Also, the cell count is 91.2% in the assay with SkMel30, 93.9% with SkMel5, 112% with UACC257 and 120% in the assay on UACC62.
Regarding `Cc1cc(Nc2cc(N3CCN(C)CC3)nc(/C=C/c3ccccc3)n2)n[nH]1` + C[C@@H]1CCN(C(=O)CC#N)C[C@@H]1N(C)c1ncnc2[nH]ccc12 [CP690550] (first compound 0.04 µM, partner dose 1 µM), the cell count stood at 103% in the assay on MZ2-MEL; 94.7% with MeWo; 120% in the assay on RPMI7951; 90.1% in the assay on RVH-421; 92.3% in the assay on SkMel28; 90.8% in the assay with SkMel2. Besides, the cell count in the assay with SkMel30 worked out at 97.3%; with SkMel5, 108%; in the assay with UACC257, 114%; in the assay with UACC62, 89.2%.
`CC(C)C[C@H](NC(=O)[C@H](Cc1ccccc1)NC(=O)c1cnccn1)B(O)O` [Bortezomib] + COc1cc2ncnc(Nc3ccc(Oc4ccccc4)cc3)c2cc1OC [SrcI1] (first compound 0.001 µM, partner dose 2 µM): the cell count in the assay with MZ2-MEL was determined as 55.1%; in the assay on MeWo, 93.6%; in the assay on RPMI7951, 85.4%; in the assay on RVH-421 it was 30.9%; in the assay with SkMel28, 87.5%; with SkMel2, 96.4%. For the same molecule, the cell count was 76.9% in the assay with SkMel30, 110% in the assay with SkMel5, 68.3% in the assay with UACC257 and 73.8% with UACC62.
